Source: the antibiotic and cytotoxicity screens of Wong et al. (2023)
The other results are listed elsewhere or left out.

System: HSkMC (human skeletal muscle cells)
Assay: cytotoxicity call (relative viability < 0.9)
Conditions: 10 µM

Structure (SMILES) | cytotoxicity call
C[C@@H]1CN([C@@H](C)CO)C(=O)c2cc(NS(=O)(=O)c3ccc(F)cc3)ccc2O[C@H]1CN(C)C(=O)Nc1cccc2ccccc12 | inactive
COc1ccc(S(=O)(=O)Nc2ccc3c(c2)C(=O)N([C@@H](C)CO)C[C@H](C)[C@H](CN(C)Cc2ccc(Cl)c(Cl)c2)OCCCC[C@@H](C)O3)cc1 | active
COc1ccc(NC(=O)Nc2ccc3c(c2)C(=O)N([C@@H](C)CO)C[C@@H](C)[C@H](CN(C)C(=O)Nc2ccc(F)cc2)OCCCC[C@H](C)O3)cc1 | inactive
C[C@H](CO)N1C[C@H](C)[C@@H](CN(C)S(C)(=O)=O)Oc2ncc(C#CCN(C)C)cc2C1=O | inactive
CO[C@H](CN(C)C(=O)c1ccc2c(c1)OCO2)[C@H](C)CN([C@H](C)CO)S(=O)(=O)c1ccc(F)cc1 | inactive
Cc1noc(C)c1NC(=O)N(C)C[C@@H]1OCCCC[C@H](C)Oc2ccc(NS(=O)(=O)c3ccc(F)cc3)cc2C(=O)N([C@@H](C)CO)C[C@H]1C | inactive
C[C@@H]1CN([C@@H](C)CO)C(=O)c2cc(NC(=O)CCC(F)(F)F)ccc2O[C@@H](C)CCCCO[C@@H]1CN(C)S(=O)(=O)c1ccc(Cl)cc1 | inactive
CNC[C@@H]1OCCCC[C@@H](C)Oc2ccc(NC(=O)Nc3cccc4ccccc34)cc2C(=O)N([C@H](C)CO)C[C@@H]1C | inactive
C[C@H]1CCCCO[C@@H](CN(C)C(=O)NC2CCCCC2)[C@@H](C)CN([C@@H](C)CO)C(=O)c2cc(NC(=O)Cc3ccccc3)ccc2O1 | inactive
C[C@H]1CN([C@@H](C)CO)C(=O)Cc2cc(NC(=O)Nc3ccc(C(F)(F)F)cc3)ccc2O[C@H]1CN(C)C(=O)NC1CCCCC1 | inactive
C[C@@H]1CN([C@@H](C)CO)C(=O)Cc2cc(NS(=O)(=O)c3ccc(F)cc3)ccc2O[C@@H]1CN(C)S(=O)(=O)c1ccccc1 | inactive
C[C@H]1CCCCO[C@@H](CN(C)Cc2ccc3c(c2)OCO3)[C@@H](C)CN([C@@H](C)CO)C(=O)c2cc(NS(=O)(=O)c3cccs3)ccc2O1 | inactive
C[C@H]1CCCCO[C@H](CN(C)C(=O)CCC(F)(F)F)[C@@H](C)CN([C@@H](C)CO)C(=O)c2cc(NC(=O)C3CCCCC3)ccc2O1 | inactive
CCCC#Cc1cnc2c(c1)C(=O)N([C@H](C)CO)C[C@@H](C)[C@H](CN(C)C(=O)c1ccc3c(c1)OCO3)O2 | inactive
Cc1[nH]c(=O)[nH]c(=O)c1S(=O)(=O)N1CCN(c2ccccc2)CC1 | inactive
N=C(N)NC(=O)c1cnccn1 | inactive
COC(=O)C(CC#Cc1ccc2c(c1)[C@]1(C(=O)N2)[C@H](c2ccccc2OCCO)N2[C@H](c3ccccc3)[C@H](c3ccccc3)OC(=O)[C@H]2[C@@H]1C(=O)N1CCc2cc(OC)c(OC)cc2C1)C(=O)OC | inactive
C[C@@H]1CN([C@@H](C)CO)C(=O)Cc2cc(NS(=O)(=O)c3ccc(F)cc3)ccc2O[C@@H]1CN(C)S(=O)(=O)c1cn(C)cn1 | inactive
C[C@@H]1CN([C@H](C)CO)C(=O)c2cc(NC(=O)C3CCOCC3)ccc2O[C@H]1CN(C)S(=O)(=O)c1ccc(Cl)cc1 | inactive
COc1ccc(S(=O)(=O)N(C)C[C@H]2OCCCC[C@@H](C)Oc3ccc(NC(=O)Nc4cccc5ccccc45)cc3C(=O)N([C@@H](C)CO)C[C@@H]2C)cc1 | inactive
NCC[C@@H]1CC[C@@H](NC(=O)NC2CCCCC2)[C@H](CO)O1 | inactive
C[C@H]1CN([C@@H](C)CO)S(=O)(=O)c2ccc(-c3cccnc3)cc2O[C@@H]1CN(C)C(=O)NC1CCCCC1 | inactive
C[C@@H]1CCCCO[C@H](CN(C)C(=O)Nc2ccc(C(F)(F)F)cc2)[C@@H](C)CN([C@@H](C)CO)C(=O)c2cc(NC(=O)Cc3ccccc3)ccc2O1 | inactive
Cc1noc(C)c1S(=O)(=O)Nc1ccc2c(c1)CC(=O)N([C@@H](C)CO)C[C@@H](C)[C@H](CN(C)C(=O)Nc1ccc3c(c1)OCO3)O2 | inactive
Cc1noc(C)c1NC(=O)N(C)C[C@H]1Oc2c(NC(=O)c3ccncc3)cccc2C(=O)N([C@@H](C)CO)C[C@@H]1C | inactive
C[C@@H]1CN([C@@H](C)CO)C(=O)Cc2cc(NS(=O)(=O)c3cccs3)ccc2O[C@@H]1CN(C)Cc1ccncc1 | inactive
COc1ccc(NC(=O)N(C)C[C@H]2Oc3ccc(NC(=O)Nc4ccc(C(F)(F)F)cc4)cc3C(=O)N([C@H](C)CO)C[C@@H]2C)cc1 | inactive
CN1C(=O)c2cc(NC(=O)Cc3cccs3)ccc2OC[C@@H]2O[C@@H](CC(=O)NCCc3ccncc3)CC[C@H]21 | inactive

System: HepG2
Assay: cytotoxicity call (relative viability < 0.9)
Conditions: 10 µM

Structure (SMILES) | cytotoxicity call
Cc1ccc(S(=O)(=O)Nc2cccc3c2O[C@@H](CN(C)Cc2ccc(Oc4ccccc4)cc2)[C@H](C)CN([C@@H](C)CO)C3=O)cc1 | inactive
NCCSSCCN | inactive
CCCOc1c(-c2ccc3ccccc3n2)cnc2ccccc12 | active
O=C(CCCCCCC(=O)Nc1ccc([C@H]2O[C@@H](CSc3ccccc3)C[C@H](c3ccccc3)O2)cc1)NO | inactive
Cc1ccc(OC(=O)N(C)C[C@@H]2OCc3ccccc3-c3ccccc3C(=O)N([C@H](C)CO)C[C@@H]2C)cc1 | inactive
COCC(=O)Nc1ccc2c(c1)OC[C@H](C)N(C(=O)c1ccccc1F)C[C@@H](C)[C@@H](OC)CN(C)C2=O | inactive
C[C@@H]1CCCCO[C@@H](CN(C)C(=O)Nc2cccc3ccccc23)[C@H](C)CN([C@H](C)CO)C(=O)c2cc(NS(=O)(=O)c3cn(C)cn3)ccc2O1 | inactive
COc1ccc(S(=O)(=O)N(C)C[C@@H]2Oc3ccc(NS(=O)(=O)c4cn(C)cn4)cc3CC(=O)N([C@H](C)CO)C[C@@H]2C)cc1 | inactive
COc1ccccc1CN1C(=O)c2ccccc2[C@](Cc2ccccc2I)(C(=O)NCCCN(C)C)[C@@H]1c1ccc(CO)cc1 | active
O=C(O)[C@@H]1CC(=O)N(C2CCCC2)C1 | inactive
CO[C@H]1CN(C)C(=O)c2cc(NC(=O)Nc3ccccc3F)ccc2OC[C@H](C)N(CCC(F)(F)F)C[C@@H]1C | inactive
COc1ccc(S(=O)(=O)N2C[C@@H](O)COC[C@H]3O[C@@H](CC(=O)NCCN4CCCCC4)CC[C@@H]32)cc1 | inactive
C[C@@H]1CN([C@@H](C)CO)C(=O)c2cc(NS(=O)(=O)c3ccc(F)cc3)ccc2O[C@H]1CN(C)C(=O)Nc1cccc2ccccc12 | inactive
COc1ccc(S(=O)(=O)Nc2ccc3c(c2)C(=O)N([C@@H](C)CO)C[C@H](C)[C@H](CN(C)Cc2ccc(Cl)c(Cl)c2)OCCCC[C@@H](C)O3)cc1 | active
COc1ccc(NC(=O)Nc2ccc3c(c2)C(=O)N([C@@H](C)CO)C[C@@H](C)[C@H](CN(C)C(=O)Nc2ccc(F)cc2)OCCCC[C@H](C)O3)cc1 | inactive
C[C@H](CO)N1C[C@H](C)[C@@H](CN(C)S(C)(=O)=O)Oc2ncc(C#CCN(C)C)cc2C1=O | inactive
CO[C@H](CN(C)C(=O)c1ccc2c(c1)OCO2)[C@H](C)CN([C@H](C)CO)S(=O)(=O)c1ccc(F)cc1 | inactive

Structure (SMILES) | cytotoxicity call
Cc1noc(C)c1NC(=O)N(C)C[C@@H]1OCCCC[C@H](C)Oc2ccc(NS(=O)(=O)c3ccc(F)cc3)cc2C(=O)N([C@@H](C)CO)C[C@H]1C | inactive
C[C@@H]1CN([C@@H](C)CO)C(=O)c2cc(NC(=O)CCC(F)(F)F)ccc2O[C@@H](C)CCCCO[C@@H]1CN(C)S(=O)(=O)c1ccc(Cl)cc1 | inactive
CNC[C@@H]1OCCCC[C@@H](C)Oc2ccc(NC(=O)Nc3cccc4ccccc34)cc2C(=O)N([C@H](C)CO)C[C@@H]1C | inactive
C[C@H]1CCCCO[C@@H](CN(C)C(=O)NC2CCCCC2)[C@@H](C)CN([C@@H](C)CO)C(=O)c2cc(NC(=O)Cc3ccccc3)ccc2O1 | inactive
C[C@H]1CN([C@@H](C)CO)C(=O)Cc2cc(NC(=O)Nc3ccc(C(F)(F)F)cc3)ccc2O[C@H]1CN(C)C(=O)NC1CCCCC1 | inactive
C[C@@H]1CN([C@@H](C)CO)C(=O)Cc2cc(NS(=O)(=O)c3ccc(F)cc3)ccc2O[C@@H]1CN(C)S(=O)(=O)c1ccccc1 | inactive
C[C@H]1CCCCO[C@@H](CN(C)Cc2ccc3c(c2)OCO3)[C@@H](C)CN([C@@H](C)CO)C(=O)c2cc(NS(=O)(=O)c3cccs3)ccc2O1 | inactive
C[C@H]1CCCCO[C@H](CN(C)C(=O)CCC(F)(F)F)[C@@H](C)CN([C@@H](C)CO)C(=O)c2cc(NC(=O)C3CCCCC3)ccc2O1 | inactive
CCCC#Cc1cnc2c(c1)C(=O)N([C@H](C)CO)C[C@@H](C)[C@H](CN(C)C(=O)c1ccc3c(c1)OCO3)O2 | inactive
Cc1[nH]c(=O)[nH]c(=O)c1S(=O)(=O)N1CCN(c2ccccc2)CC1 | inactive
N=C(N)NC(=O)c1cnccn1 | inactive
COC(=O)C(CC#Cc1ccc2c(c1)[C@]1(C(=O)N2)[C@H](c2ccccc2OCCO)N2[C@H](c3ccccc3)[C@H](c3ccccc3)OC(=O)[C@H]2[C@@H]1C(=O)N1CCc2cc(OC)c(OC)cc2C1)C(=O)OC | inactive
C[C@@H]1CN([C@@H](C)CO)C(=O)Cc2cc(NS(=O)(=O)c3ccc(F)cc3)ccc2O[C@@H]1CN(C)S(=O)(=O)c1cn(C)cn1 | inactive
C[C@@H]1CN([C@H](C)CO)C(=O)c2cc(NC(=O)C3CCOCC3)ccc2O[C@H]1CN(C)S(=O)(=O)c1ccc(Cl)cc1 | inactive
COc1ccc(S(=O)(=O)N(C)C[C@H]2OCCCC[C@@H](C)Oc3ccc(NC(=O)Nc4cccc5ccccc45)cc3C(=O)N([C@@H](C)CO)C[C@@H]2C)cc1 | inactive
NCC[C@@H]1CC[C@@H](NC(=O)NC2CCCCC2)[C@H](CO)O1 | inactive
